Results: PubChem BioAssay AID686971 (National Center for Advancing Translational Sciences (NCATS), 2013)
About 7,500 (2.1%) of roughly 360,000 compounds were called active. The shares of active, inactive and inconclusive entries below differ from those in the screen. Calls follow the shape of the dose curve; as a rule, active = well fitted cell-killing curve with a large enough effect; inconclusive = small, poorly fitted or top-dose-only effect, or effect the other way, or another doubt; inactive = no such curve, though single readings can be large or run the other way. No potency is given beside an inconclusive call; the fits are too rough.

Test: qHTS for induction of synthetic lethality in tumor cells producing 2HG: qHTS for the HT-1080-IDH1KD cell line;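 as to activity, negative = toxicity: 0% = DMSO wells and -100% = cell-free medium wells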
Conditions: HT-1080 IDH1 knockdown viability, ATP luminescence, 48 h; activity, negative = toxicity: at 46.1 µM (top of the series) unless noted
Procedure, shortened: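 HT-1080-IDH1KD cells (IDH1 knocked down), 750/well in RPMI with 5% FBS, treated with compound 48 h at 37 degrees C. Viability by CellTiter-Glo luminescence, normalised to DMSO and no-cell wells; concentration-response curves classed.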
Potency is read from the fitted curve at half-maximal effect; tags tell the direction and shape of the fitted curve.

For `C[C@@H]1CCCCO[C@@H](CN(C)Cc2ccc3c(c2)OCO3)[C@@H](C)CN([C@H](C)CO)C(=O)c2cc(NS(=O)(=O)c3ccccc3)ccc2O1`, which Potency is on record?
The Potency was inconclusive [cytotoxic, partial curve].

For `CN(C)c1ccc(N=Nc2cccc(F)c2)cc1`, which “activity, negative = toxicity” value is on record?
Its value is inactive: 10.5%.

With `Cc1ccc(C(=O)OCC(=O)c2ccc(Br)cc2)cc1S(=O)(=O)N1CCOCC1` as the molecule, how does the “activity, negative = toxicity” value read?
The value was inactive: -2.13%.

For `CCCCCCN1C[C@@H](O)[C@H](n2cc(COC(=O)c3ccccc3)nn2)C[C@@H]1c1ccc(Cl)cc1`, which “activity, negative = toxicity” value is on record?
The value was inactive: -0.87%.

With `COc1ccccc1C(=O)Nc1cccnc1` as the molecule, how does the Potency read?
The Potency was inconclusive [rising, partial curve].

Which Potency does the source give for `O=C1OC(c2ccc(F)cc2)CC1CN1CCOCC1` (stereo unspecified) here?
Its Potency is active: 16.4 µM.

Which “activity, negative = toxicity” value does the source give for `COc1ccc(CN2C(=NC(=O)c3ccccc3)SC3CS(=O)(=O)CC32)cc1` (stereo unspecified) here?
The value was inactive: 0.734%.

With `CN=c1scc(C)n1/N=C/c1ccc(O)c(O)c1O` as the molecule, how does the “activity, negative = toxicity” value read?
Its value is inactive: 2.76%.

Which Potency does the source give for `Cc1ccc(C(C)C)c(OC(=O)/C=C/c2ccccc2)c1` here?
Its Potency is inconclusive [cytotoxic, single point].

Which “activity, negative = toxicity” value does the source give for `O=C(O)CCc1nc2cc(C(F)(F)F)ccc2n(Cc2ccccc2)c1=O` here?
Its value is inactive: -4.72%.

With `Cc1ccc2[nH]c(C(=O)N/N=C/c3ccccc3O)c(C)c2c1` as the molecule, how does the Potency read?
The Potency was active: 2.59 µM.

For `COc1ccc(C2CC(c3cccs3)=NN2C(=O)CCl)cc1OC` (stereo unspecified), which Potency is on record?
Its Potency is active: 7.31 µM.

For `CSc1ccccc1NC(=O)CSCc1ccc(C)cc1`, which Potency is on record?
Its Potency is inconclusive [cytotoxic, single point].

With `COc1ccc(N=Cc2cc3c(cc2O)OC(N)=C(C#N)C3c2ccccc2)cc1` (stereo unspecified) as the molecule, how does the Potency read?
Its Potency is inconclusive [cytotoxic, partial curve].

Which Potency does the source give for `COc1ccc(Nc2c3c(nc4ccccc24)CCC3)c(OC)c1` here?
Its Potency is active: 16.4 µM.

Which Potency does the source give for `S=C(Nc1ccccc1)N1CCn2c1nc1ccccc12` here?
The Potency was inconclusive [cytotoxic, full curve, poor fit].

With `Cc1cc(C)c2cc(C#N)c(NCCCN)nc2c1` as the molecule, how does the “activity, negative = toxicity” value read?
The value was inactive: -24.9%.

Which Potency does the source give for `O=C1CCCC(=NNC(=O)c2cc3ccccc3cc2O)C1` here?
Its Potency is inconclusive [cytotoxic, single point].

For `CCOC(=O)N1CCN(Cc2nc3c(c(=O)n(C)c(=O)n3C)n2Cc2cccc(C)c2)CC1`, which “activity, negative = toxicity” value is on record?
Its value is inactive: -0.93%.

For `CC1(C(=O)Nc2ccccc2)Cc2c(-c3ccc4c(c3)OCO4)ccnc2O1` (stereo unspecified), which Potency is on record?
Its Potency is inconclusive [cytotoxic, single point].

Which Potency does the source give for `CCCC(=O)Nc1ccc(C(=O)N/N=C/c2cccnc2)cc1` here?
The Potency was inconclusive [cytotoxic, single point].

For `NC1=NC2(CCCCC2)N=C(Nc2ccc(F)cc2F)N1`, which “activity, negative = toxicity” value is on record?
Its value is inactive: 5.64%.

For `COc1ccc(Nc2nc(-c3ccncc3)nc3ccccc23)cc1`, which “activity, negative = toxicity” value is on record?
Its value is inactive: -2.27%.

For `CC(=O)Nc1c(O)c2ccccc2[nH]c1=O`, which “activity, negative = toxicity” value is on record?
Its value is inactive: 21.5%.

For `Clc1ccc(-c2nc(NCCN3CCOCC3)c3ccccc3n2)cc1`, which Potency is on record?
The Potency was inconclusive [cytotoxic, single point].

With `S=C(Nc1ccc2nsnc2c1)N1CCCCC1` as the molecule, how does the Potency read?
The Potency was inconclusive [cytotoxic, single point].

For `C[C@@H]1CCCCO[C@@H](CN(C)Cc2ccc(Cl)c(Cl)c2)[C@@H](C)CN([C@H](C)CO)C(=O)c2cc(NC(=O)Nc3ccccc3)ccc2O1`, which Potency is on record?
The Potency was inconclusive [cytotoxic, partial curve].

For `COc1ccc(Nc2nc(N3CCCCC3)c3ccccc3n2)cc1`, which Potency is on record?
The Potency was inconclusive [cytotoxic, partial curve].

With `CC1=CC2=NC(=O)/C(=C\c3cc(C)n(-c4ccccc4)c3C)C(=N)N2O1` as the molecule, how does the “activity, negative = toxicity” value read?
The value was inactive: 3.71%.

With `Cc1ccc2oc(C(=O)N3CCC(O)(c4cccc(C(F)(F)F)c4)CC3)c(C)c2c1` as the molecule, how does the Potency read?
The Potency was inconclusive [cytotoxic, single point].

Which Potency does the source give for `O=[N+]([O-])c1ccc(Oc2cccc(Br)c2)c2ccncc12` here?
Its Potency is inconclusive [cytotoxic, single point].

For `CCN(CC)C(=O)C1CCCN(Cc2ccccc2C(F)(F)F)C1` (stereo unspecified), which “activity, negative = toxicity” value is on record?
The value was inactive: 8.11%.

For `Cc1ccc2cc(NC(=O)C3(C)CCN3C(C)C)ccc2n1` (stereo unspecified), which Potency is on record?
Its Potency is inconclusive [rising, single point].

With `Cc1c(CCO)c(=O)n(-c2ccccc2)n1S(=O)(=O)c1ccc(F)cc1` as the molecule, how does the “activity, negative = toxicity” value read?
The value was inactive: -14.4%.

For `NS(=O)(=O)c1ccc(Nc2nc(-c3ccccc3)cs2)cc1`, which Potency is on record?
The Potency was inconclusive [cytotoxic, single point].

Which activity, negative = toxicity does the source give for `Cc1nn(-c2ccccc2Cl)c(Cl)c1/C=N/Nc1nc2ccccc2s1` here?
The activity, negative = toxicity was inconclusive: -7.13% [cytotoxic].

Which Potency does the source give for `CCCCCCCCN1C(=O)[C@H](CC(=O)NCc2cccs2)C[C@@]2(C(=O)OC)CCCCC=C12` here?
The Potency was inconclusive [cytotoxic, single point].

For `Cn1c(SCC(=O)NC2CCCC2)nnc1-c1ccncc1`, which “activity, negative = toxicity” value is on record?
Its value is inactive: 2.65%.

Which Potency does the source give for `O=C(CNS(=O)(=O)Cc1ccccc1)NNc1ccccc1` here?
Its Potency is active: 4.11 µM.

Which Potency does the source give for `CC(=O)Nc1ccc(NC(=O)c2cc(=O)c3ccc(C)cc3o2)cc1` here?
Its Potency is inconclusive [cytotoxic, single point].

Which Potency does the source give for `C=C1CCC[C@]2(C)C[C@H]3OC(=O)C(CNC(C)(CO)CO)[C@H]3CC12` (stereo partly specified) here?
The Potency was inconclusive [cytotoxic, partial curve].

Which Potency does the source give for `CC(=O)Oc1ccc2ccccc2c1C(NC(=O)Cc1ccccc1)c1ccc(Cl)cc1` (stereo unspecified) here?
The Potency was active: 18.4 µM.

With `COc1cc(OC)cc(-c2nc3ccccc3c(=O)n2OC(=O)c2ccc(C)c(C)c2)c1` as the molecule, how does the Potency read?
Its Potency is inconclusive [cytotoxic, single point].

Which Potency does the source give for `Cc1ccccc1C(=O)NNc1ccc(-c2csnn2)cc1` here?
Its Potency is active: 8.2 µM.

Which Potency does the source give for `Cc1cc(C)c(C)c(S(=O)(=O)ON2C(=O)c3ccccc3C2=O)c1C` here?
Its Potency is active: 7.31 µM.

Which “activity, negative = toxicity” value does the source give for `COc1ccc(NC(=O)C2(c3cccs3)CCOCC2)cc1` here?
Its value is inactive: 16.7%.

For `CCOc1ccc(-n2c(SCc3ccc(C(=O)OC)o3)nc3c(c2=O)SCC3)cc1`, which “activity, negative = toxicity” value is on record?
Its value is inactive: 8.25%.

With `Cc1ccc(C)c(S(=O)(=O)Nc2ccccc2C(=O)Nc2cc(C)on2)c1` as the molecule, how does the Potency read?
Its Potency is inconclusive [cytotoxic, single point].

With `CC(C)C(OC(=O)Cn1nnc2ccccc21)C(=O)NC1CCCC1` (stereo unspecified) as the molecule, how does the “activity, negative = toxicity” value read?
Its value is inactive: 9.88%.

With `C=CCNC(=O)c1ccc2c3n(nc2c1)-c1ccccc1CO3` as the molecule, how does the activity, negative = toxicity read?
The activity, negative = toxicity was inconclusive: -20.2% [cytotoxic].

Which Potency does the source give for `Cc1ccc(-c2nc3n(n2)Cc2ccccc2-3)cc1` here?
The Potency was inconclusive [cytotoxic, partial curve].

With `COCCOC(=O)c1c(C)oc2ccc(OS(C)(=O)=O)cc12` as the molecule, how does the “activity, negative = toxicity” value read?
The value was inactive: 0.307%.

For `COC(=O)C1C(=O)c2c([nH]c(C(=O)OC3CCCC3)c2C)CC1C` (stereo unspecified), which “activity, negative = toxicity” value is on record?
Its value is inactive: -0.524%.

For `COc1cc(O)c(C(CCN2CCOCC2)c2ccc3c(c2)OCO3)c(OC)c1` (stereo unspecified), which “activity, negative = toxicity” value is on record?
The value was inactive: 4.01%.

With `Nc1cccc(-c2cccc3nncn23)c1` as the molecule, how does the Potency read?
Its Potency is inconclusive [rising, single point].

Which Potency does the source give for `Cc1cc(C(=O)Nc2nc(-c3ccccn3)cs2)ccc1[N+](=O)[O-]` here?
Its Potency is inconclusive [cytotoxic, single point].

For `Cc1cc(Cn2nc(-c3ccccc3)cc2C(=O)NCc2cccc(C(F)(F)F)c2)on1`, which Potency is on record?
Its Potency is inconclusive [cytotoxic, single point].

With `Fc1ccccc1COc1ccc2ccccc2c1CNc1nn[nH]n1` as the molecule, how does the Potency read?
The Potency was active: 16.4 µM.

For `COc1ccc(C2=NN(C(=O)c3ccc(Cl)c([N+](=O)[O-])c3)C(c3ccccc3)C2)cc1` (stereo unspecified), which Potency is on record?
The Potency was inconclusive [cytotoxic, single point].

For `OCCN(Cc1ccccc1)CC(O)COc1ccc(-c2ccccc2)cc1` (stereo unspecified), which Potency is on record?
The Potency was inconclusive [cytotoxic, single point].

For `O=C(CN(c1cccc(Br)c1)S(=O)(=O)c1ccccc1)N/N=C/c1cc([N+](=O)[O-])ccc1O`, which Potency is on record?
Its Potency is active: 14.6 µM.

For `COc1ccc(Cn2c(/C=C/c3ccccc3)nc3ccccc32)cc1`, which Potency is on record?
The Potency was inconclusive [cytotoxic, single point].

Which “activity, negative = toxicity” value does the source give for `CCOc1ccccc1NC(=O)CCNC(=O)c1ccc(Cl)cc1` here?
The value was inactive: 13.9%.

With `Cc1cccn2c(=O)c3cc(C(=O)NC4CCS(=O)(=O)C4)n(Cc4ccccc4)c3nc12` (stereo unspecified) as the molecule, how does the Potency read?
The Potency was inconclusive [cytotoxic, single point].

With `Cc1ccc(C2C(C#N)=C(N)Oc3cc4c(cc32)OCO4)cc1` (stereo unspecified) as the molecule, how does the Potency read?
Its Potency is inconclusive [cytotoxic, single point].

Which “activity, negative = toxicity” value does the source give for `CC(c1cccs1)N(C(=O)Nc1ccccc1)C1CCCCC1` (stereo unspecified) here?
The value was inactive: 14.5%.

For `Cn1cc(CN2CCC(C(=O)NC(c3ccc(-c4ccccc4)cc3)c3cnccn3)CC2)c2ccccc21` (stereo unspecified), which activity, negative = toxicity is on record?
The activity, negative = toxicity was inconclusive: -36.3% [cytotoxic].

With `CC(=O)Nc1ccc(/C=N/N2C(=O)NC(C)(c3ccc(OC(F)F)cc3)C2=O)cc1` (stereo unspecified) as the molecule, how does the “activity, negative = toxicity” value read?
Its value is inactive: -21%.

For `Cc1ccc(-c2nc3ncccc3o2)cc1NC(=O)c1ccc([N+](=O)[O-])o1`, which activity, negative = toxicity is on record?
Its activity, negative = toxicity is inconclusive: -4.16% [cytotoxic].

With `Cc1cc2nc(-c3ccc(C#N)cc3)c(Cc3ccsc3)n2c(C)c1Br` as the molecule, how does the Potency read?
The Potency was inconclusive [cytotoxic, single point].

Which Potency does the source give for `COc1ccc(NC(=O)/C(C#N)=C\c2cc(C)n(-c3ccc4c(c3)OCO4)c2C)cc1` here?
The Potency was active: 2.06 µM.

Which Potency does the source give for `COC(=O)c1ccc2c(c1)C(C)(C)C(/C=C/c1ccc(O)cc1)=[N+]2C` here?
Its Potency is active: 2.82 µM.

For `Cc1[nH]n(-c2ccc([N+](=O)[O-])cc2)c(=O)c1/C=N/N1CCOCC1`, which activity, negative = toxicity is on record?
The activity, negative = toxicity was inconclusive: -10.4% [cytotoxic].

Which “activity, negative = toxicity” value does the source give for `Cc1occc1C(=O)N1CCN(c2ccc([N+](=O)[O-])cc2)CC1` here?
The value was inactive: -4.44%.

For `C/C(=N\N1CCN(c2ccc(Cl)cc2)CC1)c1cccc([N+](=O)[O-])c1`, which “activity, negative = toxicity” value is on record?
The value was inactive: 11.1%.

With `CCOc1ccc2nc(N3CCCC(C(=O)NCCCN4CCCCC4)C3)sc2c1` (stereo unspecified) as the molecule, how does the Potency read?
Its Potency is inconclusive [cytotoxic, single point].
